Measurements: PubChem BioAssay (NCATS)
The shares of active, inactive and inconclusive entries below differ from those in the screen. For part of these data: Potencies of inconclusive entries are doubtful fits and often do not repeat. Active and inactive are the calls of the source. Calls come from the whole dose curve; as a rule, active = well fitted curve in the direction sought with a large enough effect; inconclusive = small, poorly fitted or top-dose-only effect, or another doubt; inactive = no such curve, though single readings can be large; an effect the other way counts as inactive or inconclusive.

Assays:
[1] = P-glycoprotein substrates identified in KB-8-5-11 adenocarcinoma cell line, qHTS therapeutic library screen (AID 1346987); settings: KB-8-5-11 (P-gp overexpressing) viability, CellTiter-Glo, 72 h; series mostly up to 44.5 µM; note: nearly all actives have a fitted effect of over 65% in size
Outline: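 P-gp-mediated resistance screen: KB-8-5-11 cells treated 72 h with compounds in dose-response. CellTiter-Glo viability.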

[2] = system: Zika virus NS2B-NS3 protease (unlinked complex); assay: Primary screen GU Rhodamine qHTS for Zika virus inhibitors: Unlinked NS2B-NS3 protease assay (AID 1347159); settings: Recombinant ZIKV NS2B-NS3 protease, Rhodamine110 substrate fluorescence; series mostly up to 107 µM; note: nearly all actives have a fitted effect of over 60% in size
Outline: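 A qHTS format was used, with compound concentrations ranging up to 114 microM. Each compound was preincubated with 25 nM NS2B-NS3 protease, and the substrate was then added at 1.5 microM. Curves were fitted with a 4-parameter Hill model.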

[3] = system: HEK293; assay: Cytotoxic Profiling of Annotated Libraries Using Quantitative High-Throughput Screening (AID 1296008); settings: Five cell lines viability, CellTiter-Glo ATP luminescence, 48-72 h; max response: stronger effect = lower value; note: nearly all actives have a fitted effect of over 60% in size
Outline: (§1)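 Cytotoxicity was measured as CellTiter-Glo ATP luminescence, read after 10 min at room temperature. Compound treatment of the cells lasted 48 or 72 hr at 37 degrees Celsius in a qHTS format.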

[4] = system: KB-3-1; assay: as above; settings: Five cell lines viability, CellTiter-Glo ATP luminescence, 48-72 h; max response: stronger effect = lower value
Outline: as §1

[5] = system: C33A; assay: Primary qHTS to identify gynecologic anti-cancer compounds using libraries of approved drugs and bioactive compounds (AID 1345084); settings: Gynecologic cancer cell panel viability, ATPlite luminescence, 48 h; series mostly up to 57.5 µM; note: nearly all actives have a fitted effect of over 55% in size
Outline: (§2)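 Cell viability after 48 h drug treatment, ATPlite luminescence readout; five doses.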

[6] = system: CAOV3; assay: as above; settings: Gynecologic cancer cell panel viability, ATPlite luminescence, 48 h; series mostly up to 57.5 µM
Outline: as §2

[7] = system: CASKI; assay: as above; settings: Gynecologic cancer cell panel viability, ATPlite luminescence, 48 h; activity change, negative = cytotoxicity: at 57.5 µM (top of the series)
Outline: as §2

[8] = system: Es-2; assay: as above; settings: Gynecologic cancer cell panel viability, ATPlite luminescence, 48 h; series mostly up to 57.5 µM
Outline: as §2

[9] = system: HeLa; assay: as above; settings: Gynecologic cancer cell panel viability, ATPlite luminescence, 48 h; series mostly up to 57.5 µM
Outline: as §2

[10] = system: Hek293T; assay: as above; settings: Gynecologic cancer cell panel viability, ATPlite luminescence, 48 h, control line for the selectivity index; series mostly up to 57.5 µM
Outline: as §2

[11] = system: SKOV3; assay: as above; settings: Gynecologic cancer cell panel viability, ATPlite luminescence, 48 h; series mostly up to 57.5 µM
Outline: as §2

[12] = system: Tov-21-G; assay: as above; settings: Gynecologic cancer cell panel viability, ATPlite luminescence, 48 h; activity change, negative = cytotoxicity: at 57.5 µM (top of the series)
Outline: as §2

[13] = system: Tov112D; assay: as above; settings: Gynecologic cancer cell panel viability, ATPlite luminescence, 48 h; activity change, negative = cytotoxicity: at 57.5 µM (top of the series)
Outline: as §2

[14] = Primary qHTS for inhibitors of nuclear receptor binding SET domain protein 2 (NSD2) in an isogenic RCH-ACV NSD2 p.E1099K mutant (9B) (AID 1645876); settings: RCH-ACV NSD2 E1099K (9B) viability, CellTiter-Glo, 72 h; series mostly up to 44.9 µM; note: nearly all actives have a fitted effect of over 70% in size
[15] = Primary qHTS for inhibitors of nuclear receptor binding SET domain protein 2 (NSD2) in an RCH-ACV wild type WT cells (2C) (AID 1645877); settings: RCH-ACV (leukaemia line) NSD2 WT (2C) viability, CellTiter-Glo, 72 h; activity change, negative = cell killing: at 44.9 µM (top of the series); series mostly up to 44.9 µM; note: nearly all actives have a fitted effect of over 70% in size
[16] = system: NIH3T3; assay: Cytotoxic Profiling of Annotated Libraries Using Quantitative High-Throughput Screening (AID 1296008); settings: Five cell lines viability, CellTiter-Glo ATP luminescence, 48-72 h; max response: stronger effect = lower value; note: nearly all actives have a fitted effect of over 60% in size
Outline: as §1

[17] = system: OV90; assay: Primary qHTS to identify gynecologic anti-cancer compounds using libraries of approved drugs and bioactive compounds (AID 1345084); settings: Gynecologic cancer cell panel viability, ATPlite luminescence, 48 h; series mostly up to 57.5 µM; note: nearly all actives have a fitted effect of over 55% in size
Outline: as §2

[18] = system: PA-1; assay: as above; settings: Gynecologic cancer cell panel viability, ATPlite luminescence, 48 h; series mostly up to 57.5 µM
Outline: as §2

[19] = system: JEG-3; assay: as above; settings: Gynecologic cancer cell panel viability, ATPlite luminescence, 48 h; series mostly up to 57.5 µM
Outline: as §2
% is set by controls: 0 for no effect and ±100 for the full control effect; potency is the fitted concentration of half-maximal effect; tags give direction and shape of the fitted curve.

Nc1nc(Nc2ccc3c(c2)CCC(N2CCCC2)CC3)nn1-c1cc2c(nn1)-c1ccccc1CCC2 (stereo unspecified)
inconclusive: Potency [4] 29.1 µM [inhibitor, single point] | Potency [5] 31.6 µM [cytotoxic, single point] | Potency [7] 25.1 µM [cytotoxic, single point] | Potency [8] 39.8 µM [cytotoxic, single point] | Potency [9] 35.5 µM [cytotoxic, single point] | Potency [10] 39.8 µM [cytotoxic, single point] | Potency [13] 25.1 µM [cytotoxic, single point]
active: Potency [1] 14.6 µM | Potency [2] 50.1 µM | Potency [3] 8.2 µM | Potency [6] 7.94 µM | Potency [11] 7.08 µM | Potency [12] 22.4 µM

C[C@]12CC[C@@H]3c4ccc(O)cc4C[C@@H](CCCCCCCCCS(=O)CCCC(F)(F)C(F)(F)F)[C@H]3[C@@H]1CC[C@@H]2O (stereo partly specified)
inconclusive: Potency [3] 15 µM [inhibitor, partial curve, poor fit]
inactive: Potency [14] | max response [4] 3.54% | Potency [7]

C=C1CCC2C(C)(C(=O)O)CCCC2(C)C1CCC1=CCOC1=O (stereo unspecified)
inactive: Potency [2] | Potency [15] | max response [4] -6.84% | outcome [16]
inconclusive: Potency [3] 20.2 µM [inhibitor, single point]

CCCOC(C(=O)OC1CCN(C)CC1)(c1ccccc1)c1ccccc1
inconclusive: Potency [1] 10.3 µM [inhibitor, partial curve, poor fit] | Potency [14] 16.8 µM [inhibitor, single point] | Potency [15] 26.6 µM [inhibitor, single point] | Potency [3] 33.5 µM [inhibitor, single point] | Potency [4] 29.1 µM [inhibitor, single point] | Potency [17] 25.1 µM [cytotoxic, single point]

Cc1ccc(OC[C@H](O)[C@H](C)NC(C)C)c2c1CCC2
inactive: Potency [1] | max response [4] 5.3% | Potency [18] | Potency [12]
inconclusive: Potency [2] 100 µM [inhibitor, single point] | Potency [15] 23 µM [inhibitor, partial curve, poor fit] | Potency [3] 23.1 µM [inhibitor, single point] | Potency [5] 5.01 µM [cytotoxic, single point]

CC1(C)CC[C@]2(C(=O)O[C@@H]3O[C@H](CO)[C@@H](O)[C@H](O)[C@H]3O)CC[C@]3(C)C(=CCC4[C@@]5(C)CC[C@H](O[C@@H]6O[C@H](C(=O)O)[C@@H](O[C@@H]7O[C@H](CO)[C@@H](O)[C@H](O)[C@H]7O)[C@H](O)[C@H]6O[C@@H]6O[C@H](CO)[C@@H](O)[C@H](O)[C@H]6O)C(C)(C)C5CC[C@]43C)C2C1 (stereo partly specified)
inactive: activity change, negative = viability loss [14] 4.56% [at 9.23 µM] | activity change, negative = cell killing [15] 4.58% [at 9.23 µM] | max response [3] -5.89% | max response [4] 9.55% | activity change, negative = cytotoxicity [9] 0.908% [at 11.6 µM]

O=C(Nc1nc2ccc([N+](=O)[O-])cc2s1)C1CCCCC1
inconclusive: Potency [1] 20.6 µM [inhibitor, single point] | Potency [3] 18.4 µM [inhibitor, partial curve, poor fit] | Potency [4] 13 µM [inhibitor, partial curve] | Potency [8] 20 µM [rising, single point] | Potency [11] 3.16 µM [rising, partial curve, poor fit]

Cc1cc(C)c(NC(=O)N(Cc2ccc3c(c2)Cc2ccccc2-3)C2CCCCCC2)c(C)c1
inconclusive: Potency [1] 20.6 µM [inhibitor, single point] | Potency [2] 2.82 µM [inhibitor, full curve, poor fit] | Potency [3] 20.6 µM [inhibitor, single point] | Potency [4] 29.1 µM [inhibitor, single point]
inactive: Potency [7]

COC(=O)CC(O)CC(O)/C=C/c1c(C)ccc2c1C(OC(C)=O)CC(C)C2 (stereo unspecified)
inactive: Potency [7]
inconclusive: Potency [1] 14.3 µM [inhibitor, single point] | Potency [14] 8.98 µM [inhibitor, partial curve] | Potency [15] 8.01 µM [inhibitor, partial curve] | Potency [3] 20.2 µM [inhibitor, single point] | Potency [4] 16.1 µM [inhibitor, single point] | Potency [9] 17.8 µM [cytotoxic, partial curve, poor fit] | Potency [17] 6.31 µM [cytotoxic, full curve] | Potency [18] 28.2 µM [cytotoxic, partial curve, poor fit] | Potency [13] 1.41 µM [cytotoxic, partial curve, poor fit]

C/C1=C\[C@@H](C)C[C@@H](C)[C@@H](Cc2cnco2)OC(=O)/C(C)=C/[C@@H](C)C[C@@H](C)[C@@H](Cc2cnco2)OC1=O
inconclusive: Potency [1] 3.17 µM [inhibitor, partial curve] | Potency [4] 0.632 µM [inhibitor, full curve] | Potency [7] 1.58 µM [cytotoxic, full curve] | Potency [8] 5.62 µM [cytotoxic, partial curve, poor fit] | Potency [10] 8.91 µM [cytotoxic, partial curve, poor fit] | Potency [11] 2.82 µM [cytotoxic, full curve, poor fit] | Potency [13] 0.447 µM [cytotoxic, full curve, poor fit]
active: Potency [3] 0.632 µM

CCCCN(CC)c1nc(C)nc2c1c(C)cn2-c1c(C)cc(C)cc1C
inactive: max response [4] -14.3%
inconclusive: Potency [14] 23 µM [inhibitor, partial curve, poor fit] | Potency [3] 29.1 µM [inhibitor, single point] | Potency [6] 20 µM [rising, partial curve, poor fit] | Potency [11] 12.6 µM [rising, partial curve]

CCCCC(=O)OCC(=O)[C@H]1[C@H](C)C[C@H]2[C@@H]3C[C@H](F)C4=CC(=O)C=C[C@]4(C)[C@@]3(F)[C@@H](O)C[C@@]21C
inconclusive: Potency [1] 18.4 µM [inhibitor, partial curve, poor fit] | Potency [14] 0.0841 µM [inhibitor, partial curve, poor fit] | Potency [3] 33.5 µM [inhibitor, single point]
inactive: max response [4] -3.44% | Potency [6] | Potency [11]

CC(=O)O[C@@H]1C[C@@]2(C)C(CC[C@]3(C)C2CC=C2C4CC(C)(C)CC[C@]4(C(=O)O)CC[C@]23C)C(C)(C)[C@H]1O (stereo partly specified)
inconclusive: Potency [14] 11.2 µM [inhibitor, partial curve] | Potency [15] 8.93 µM [inhibitor, single point] | Potency [3] 14.2 µM [inhibitor, single point] | Potency [11] 3.98 µM [rising, single point]
active: Potency [2] 7.08 µM
inactive: Potency [1] | max response [4] -16.7% | Potency [7] | Potency [9] | Potency [13]

CCC(C)CNCC(=O)N1CCc2sccc2C1COc1cccc(C)c1 (stereo unspecified)
inconclusive: Potency [1] 13 µM [inhibitor, partial curve] | Potency [3] 20.6 µM [inhibitor, single point] | Potency [4] 16.4 µM [inhibitor, partial curve, poor fit] | Potency [17] 14.1 µM [cytotoxic, partial curve, poor fit]
active: Potency [14] 16.3 µM | Potency [15] 20.5 µM
inactive: Potency [6] | Potency [11]

CCOC(=O)N1c2ccc(C(F)(F)F)cc2C(N(Cc2cc(C(F)(F)F)cc(C(F)(F)F)c2)C(=O)OC)CC1CC (stereo unspecified)
inactive: Potency [14] | Potency [15] | max response [4] -0.758% | Potency [9] | Potency [11]
inconclusive: Potency [3] 29.1 µM [inhibitor, single point]

CC(=O)O[C@@H]1C[C@@]23C[C@@]24CC[C@H](O[C@@H]2OC[C@H](O)[C@H](O)[C@H]2O)C(C)(C)[C@@H]4CC[C@H]3[C@]2(C)[C@@H](O)C34O[C@H](C[C@@H](C)[C@@H]3[C@@]12C)[C@@H](C(C)(C)O)O4
inactive: Potency [15] | max response [3] -6.78% | Potency [6]
inconclusive: Potency [4] 25.9 µM [inhibitor, single point]

COC(=O)C[C@H]1[C@]2(C)C3=C(C)[C@H](c4ccoc4)C[C@H]3O[C@@H]2[C@H](O)C2[C@](C)(C(=O)OC)C=CC(=O)[C@@]21C (stereo partly specified)
inactive: Potency [14] | Potency [15] | Potency [19]
inconclusive: Potency [1] 8.93 µM [inhibitor, partial curve, poor fit] | Potency [3] 15.9 µM [inhibitor, single point] | Potency [4] 7.96 µM [inhibitor, partial curve, poor fit] | Potency [6] 20 µM [cytotoxic, single point]

O=C(O[C@@H]1O[C@H](CO)[C@@H](O)[C@H](O)[C@H]1O)c1ccccc1
inactive: outcome [3] | outcome [4] | Potency [6]

CC1(C)CC[C@]2(C(=O)O)CC[C@]3(C)C(=CCC4[C@@]5(C)C[C@@H](O)[C@H](O)[C@@](C)(CO)C5CC[C@]43C)[C@@H]2[C@@H]1O (stereo partly specified)
inactive: Potency [10]
inconclusive: Potency [1] 8.93 µM [inhibitor, single point] | Potency [2] 39.8 µM [inhibitor, partial curve, poor fit] | Potency [14] 14.2 µM [inhibitor, single point] | Potency [15] 14.2 µM [inhibitor, single point] | Potency [3] 14.2 µM [inhibitor, single point] | Potency [4] 7.96 µM [inhibitor, single point] | Potency [11] 0.316 µM [cytotoxic, single point]
